# Assay results taken from paper PMC4336329 (PLoS ONE, 2015).
# Out of some 310,000 compounds screened, about 2,200 (0.71%) showed an effect of 50% or more. Effects have a minus sign here. The list shows a part of the results.
# Target: human ether-à-go-go-related gene (hERG) potassium channel (human, UniProt Q12809)
# Test: primary screen, population patch clamp on CHO cells stably expressing hERG
# human ether-à-go-go-related gene (hERG) potassium channel, sequence (Q12809 whole entry, looked up): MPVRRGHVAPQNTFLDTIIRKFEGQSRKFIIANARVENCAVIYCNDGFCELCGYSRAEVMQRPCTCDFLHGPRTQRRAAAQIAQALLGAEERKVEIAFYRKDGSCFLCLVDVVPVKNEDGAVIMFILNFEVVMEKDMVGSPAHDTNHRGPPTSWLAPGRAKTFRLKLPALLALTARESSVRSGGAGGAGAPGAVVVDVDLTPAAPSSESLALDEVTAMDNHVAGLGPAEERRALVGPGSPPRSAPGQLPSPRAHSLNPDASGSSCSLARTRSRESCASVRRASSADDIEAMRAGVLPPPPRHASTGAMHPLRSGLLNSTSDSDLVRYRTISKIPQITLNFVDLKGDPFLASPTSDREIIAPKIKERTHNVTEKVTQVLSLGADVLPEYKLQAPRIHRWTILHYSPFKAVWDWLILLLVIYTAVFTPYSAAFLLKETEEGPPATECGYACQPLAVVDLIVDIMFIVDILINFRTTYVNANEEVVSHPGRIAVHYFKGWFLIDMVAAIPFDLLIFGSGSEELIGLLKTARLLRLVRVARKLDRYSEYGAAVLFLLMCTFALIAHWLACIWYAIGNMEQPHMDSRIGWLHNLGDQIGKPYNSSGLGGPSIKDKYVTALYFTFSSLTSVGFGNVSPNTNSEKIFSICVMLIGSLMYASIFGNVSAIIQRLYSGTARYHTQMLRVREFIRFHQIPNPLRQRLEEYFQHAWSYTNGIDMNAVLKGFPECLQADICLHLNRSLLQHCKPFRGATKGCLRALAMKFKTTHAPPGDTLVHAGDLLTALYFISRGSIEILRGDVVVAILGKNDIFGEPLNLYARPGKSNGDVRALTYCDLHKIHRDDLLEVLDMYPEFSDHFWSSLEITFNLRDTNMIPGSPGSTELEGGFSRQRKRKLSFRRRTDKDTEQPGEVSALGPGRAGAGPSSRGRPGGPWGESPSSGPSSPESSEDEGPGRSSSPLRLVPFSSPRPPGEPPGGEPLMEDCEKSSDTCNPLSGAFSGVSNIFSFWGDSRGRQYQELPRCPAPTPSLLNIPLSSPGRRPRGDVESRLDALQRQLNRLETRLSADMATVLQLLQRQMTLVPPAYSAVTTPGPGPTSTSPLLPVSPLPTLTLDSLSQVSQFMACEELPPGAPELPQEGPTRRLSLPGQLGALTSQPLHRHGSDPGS
row,SMILES,"hERG current change (%, negative = inhibition) at 1uM [%]"
1,O=S(=O)(c1cccs1)N1CCN(c2ccc(F)cc2)CC1,3.78
2,COc1cccc(CSc2nnc(-c3ccc(F)cc3)o2)c1,7.21
3,CCOC(=O)C1(Cc2cccc(OC)c2)CCN(C(C)COC)CC1 (stereo not drawn),10.9
4,COc1cc(/C=C2/NC(=O)N(c3cccc(Cl)c3)C2=O)ccc1O,19.5
5,COC(CNC(=O)Cn1nc(Cc2ccncc2)c2ccccc2c1=O)OC,14.1
6,Cc1cc(=O)oc2cc(OCC(=O)OCC(=O)Nc3ccccc3F)ccc12,4.34
7,CCOC(=O)C(=O)N/N=C/c1ccc(F)cc1,11.3
8,COC(=O)c1ccc(NC(=O)C[n+]2ccccc2)cc1.[Cl-],11.6
9,Cl.Nc1nonc1C(=O)NCCNCc1cc(Br)ccc1OCc1ccc(F)cc1,-6.57
10,O=C(CN1C(=O)C2C3CC(C(Br)C3Br)C2C1=O)N1CCOCC1 (stereo not drawn),10.1
11,Cc1ccc(CNC(=O)C2CC(c3ccc(C(F)(F)F)cc3)=NO2)o1 (stereo not drawn),9.59
12,CSCC[C@H](NC(=O)OC(C)(C)C)C(=O)N1CCC(C(=O)N[C@H](C(=O)O)C(C)C)CC1,4
13,CCCCCCCCC[n+]1cccc2c3ccccc3ccc21.[Br-],-91.7
14,O=C1CSC(=NC2CCCCC2)N1,13.5
15,O=C(O)CC(CC(=O)Nc1ccccc1C(=O)O)c1ccccc1 (stereo not drawn),15.1
16,CCC1CCCCN1CCCNC(=O)CSc1nc2nc(C)c(Cc3ccc(C)cc3)c(C)n2n1 (stereo not drawn),-3.76
17,COCC(=O)NC(c1ccccc1)c1ccccc1,-8.16
18,Cn1nnnc1SCC(=O)NC1CCCc2ccccc21 (stereo not drawn),11.4
19,O=C(CSCc1ccccc1)N1CCN(C(=O)c2ccco2)CC1,9.75
20,CCN(CC(=O)Nc1cc(Cl)ccc1C)C(=O)CCOc1ccccc1C,10.6
21,CCc1nnc(NC(=O)c2cccc(S(=O)(=O)N3CCN(C(C)=O)CC3)c2)s1,1.6
22,CC1CN(S(=O)(=O)c2ccc(C(=O)NCCCn3ccnc3)cc2)CC(C)O1 (stereo not drawn),11.7
23,CC(=O)Nc1ccc(S(=O)(=O)NC2=NCN(C)CN2)cc1,11.3

row,SMILES,"hERG current change (%, negative = inhibition) at 1uM [%]"
1,Cc1nn(Cc2ccccc2)c(C)c1/C=N/NC(=O)c1cccnc1,7.98
2,COC(=O)c1sc2ccccc2c1NC(=O)c1cccs1,8.41
3,Cc1cc(F)ccc1S(=O)(=O)Nc1ccccc1C(=O)Nc1ncn[nH]1,0.246
4,Cc1c(C(=O)C(=O)N2CC=C(c3ccccc3)CC2)c2ccccc2n1C,7.1
5,O=C(NC(Cc1ccccc1)C(=O)O)c1ccc(S(=O)(=O)N2CCOCC2)cc1 (stereo not drawn),3.41
6,Cc1ccc(CSc2ccc(S(=O)(=O)N3CCOCC3)cn2)cc1,3.6
7,O=c1[nH]c2ccccc2nc1Cc1ccccc1,2.6
8,N#C/C(=C\c1ccccc1[N+](=O)[O-])C(=O)Nc1ccc(S(N)(=O)=O)cc1,5.69
9,COc1ccc(S(=O)(=O)N2CCCC(C(=O)NCc3ccccn3)C2)cc1 (stereo not drawn),4.8
10,CCN1CCN(C(=O)Cc2c(C)n(C(=O)c3ccc(Cl)cc3)c3ccc(OC)cc23)CC1.Cl,9.01
11,CCCCCCC1(C)NC(=O)N(C(C)C(=O)Nc2ccc(N3CCOCC3)cc2)C1=O (stereo not drawn),7.82
12,CCN(CC)S(=O)(=O)c1ccc(/C=C/C(=O)OCC(=O)NNC(=O)c2ccc(OC)cc2)cc1,9.94
13,CC(Sc1nnc(C2CC2)n1C1CC1)C(=O)c1ccc(F)cc1 (stereo not drawn),9.04
14,O=C(O)CCCNC(=O)OCc1ccccc1,1.96
15,Fc1ccc(N=c2ssnc2Cl)c(F)c1,19
16,COC(=O)c1ccc(CNCC(O)COc2ccc(-c3ccccc3)cc2)cc1 (stereo not drawn),14.3
17,CC(NC=C1C(=O)OC(C)(C)OC1=O)C(=O)O (stereo not drawn),11.6
18,O=C(COc1ccc([N+](=O)[O-])cc1Cl)NCC1CCCO1 (stereo not drawn),-9.4
19,CC(=O)Nc1ccc(NC(=O)c2ccc(COc3ccccc3)cc2)cc1,19.1
20,CSc1ncc(Cl)c(C(=O)Nc2cccc3ccccc23)n1,3.37
21,Cc1ccc(C(=O)OCc2ccc3c(c2)OCO3)cc1S(=O)(=O)N1CCCCC1,6.4
22,CCOc1ccc(C(=O)N/N=C/c2cc(Cl)ccc2[N+](=O)[O-])cc1,6.42
23,O=C(Cn1c(=O)c2cccn2c2ccccc21)NCCCN1CCCCC1,19.4

row,SMILES,"hERG current change (%, negative = inhibition) at 1uM [%]"
1,Cc1ccc(NC(=S)N2CCC(NC(=O)c3ccc(F)cc3)CC2)cc1C,11.1
2,CN1C(=O)C2(c3ccccc31)C1CCCC=C1C(C#N)=C(N)C2(C#N)C#N (stereo not drawn),9.97
3,Cn1ncc(Cl)c1C(=O)NCc1ccc2c(c1)OCO2,16.3
4,COc1ccc(-c2cc(C(N)=O)nc(N3CCCCCC3)n2)cc1,14.1
5,COc1cc(C(=O)Nc2c(C(=O)O)[nH]c3ccccc23)cc(OC)c1OC,10.9
6,CCNc1nc(C)c2cc(Br)c(=O)n(CC)c2n1,20.2
7,CCN(CC(=O)Nc1c(F)cccc1F)C(=O)CN1C(=O)NC2(CCCC2)C1=O,21
8,O=C(CCn1c(=S)[nH]c2ccccc2c1=O)N1CCOCC1,8.04
9,CCOc1ccccc1C(=O)NN1C(=O)C2CCCCC2C1=O (stereo not drawn),6.62
10,COc1ccc(/C=C/C(=O)NC(=S)Nc2ccc(C(=O)O)cc2)cc1,14.8
11,CCN1CCN(c2ncnc3ccc(Br)cc23)CC1,4.89
12,N#CCCN/N=C(\Cc1nc2ccccc2[nH]1)c1ccccc1,13.6
13,CCOC(=O)N1CCC(Nc2c(NCCCN(CC)Cc3ccccc3)c(=O)c2=O)CC1,11.4
14,O=C(c1cc(=O)[nH]c2ccccc12)N1CCc2ccccc2C1,8.57
15,O=C(COC(=O)CCNS(=O)(=O)c1cccc(C(F)(F)F)c1)NC(=O)NC1CCCCC1,4
16,CCOC(=O)N1CCC(NC(=O)c2cc3sccc3n2CC)CC1,12.3
17,CCN1CCN(CCCNC(=O)CCc2nc(-c3ccc(OC)cc3)no2)CC1,6.54
18,Cc1ccccc1CS(=O)(=O)CCC(=O)NCc1ccc(F)cc1Cl,-0.181
19,CC(C)=CCc1c(O)ccc2c1OC(c1ccc(O)c(O)c1)CC2=O (stereo not drawn),11
20,COc1ccc(CCNC(=O)COC(=O)c2cnccn2)cc1,7.35
21,COc1cccc(CC(NC(C)=O)C(=O)NC2CCN(S(=O)(=O)c3ccc(NC(C)=O)cc3)CC2)c1OC (stereo not drawn),9.39
22,CCCC(=O)Oc1ccc(C2NC(=O)c3ccccc3O2)cc1 (stereo not drawn),12.9
23,Cc1csc(Nc2ccccc2)[n+]1C.[Br-],13.9

row,SMILES,"hERG current change (%, negative = inhibition) at 1uM [%]"
1,CCOC(=O)c1c(C)[nH]c(C)c1S(=O)(=O)NCC1CCN(Cc2ccccc2F)CC1,8.12
2,O=C(CSCc1ccccc1)NC1CCSC1=O (stereo not drawn),2.98
3,CCOC(=O)N1CCC(NC(=O)CCc2nc(-c3ccccc3F)no2)CC1,10.8
4,CCOC(C(=O)OCCCN(CC)CC)(c1ccccc1)c1ccccc1.Cl,4.72
5,Nc1nc(SCC(=O)N2N=C(c3ccc(Cl)cc3)CC2c2ccco2)n[nH]1 (stereo not drawn),6.73
6,COCCNc1nc(-n2nc(C)cc2C)nc2sc3c(c12)CCCC3,1.29
7,Clc1ccc(OCc2nnc(SCc3nnc(-c4ccccc4)o3)o2)c(Cl)c1,3.63
8,Cn1nc(C(=O)NCc2ccccc2)c2ccccc2c1=O,10.7
9,Cc1cc(N2CCN(C)CC2)nc2ccc(NC(=S)N3CCOCC3)cc12,5.36
10,Cc1ccccc1-n1c(O)c(C=Nc2ccc3c(c2)OCO3)c(=O)[nH]c1=O,10.3
11,CC(=O)c1ccc(N(C)C)cc1,13.2
12,O=C(NCCc1ccccn1)c1cccc(S(=O)(=O)N2CCc3ccccc32)c1,8.51
13,CC1CCCCN1C(=O)Cn1c(=O)n(C2CCCCC2)c(=O)c2ccccc21 (stereo not drawn),2.61
14,S=C(NCc1ccccc1)NNc1ccccc1,10.4
15,COC(=O)Oc1nsnc1N1CCOCC1,14.4
16,CCCCc1cc(=O)oc2cc(C)cc(OCC(=O)Nc3cccnc3)c12,12.7
17,O=C(O)c1cc([N+](=O)[O-])c(Nc2cccc3ccccc23)c([N+](=O)[O-])c1,5.39
18,COc1ccc(/C=C2\Oc3cc(OCC(=O)N4CC(O)C[C@H]4C(=O)O)ccc3C2=O)cc1OC (stereo partly drawn),16.3
19,O=C(COC(=O)Cc1ccc(F)cc1)NC(=O)c1ccccc1,18.2
20,COc1ccc(OC)c(N(CC(=O)NCCSC2CCCCC2)S(=O)(=O)c2ccccc2)c1,12.2
21,C/C=C(\C)C(=O)N[C@@H](c1ccccc1)[C@@H](O)C(=O)O[C@H]1C[C@@]2(O)[C@@H](OC(=O)c3ccccc3)C3[C@](C)(C(=O)[C@H](OC(C)=O)C(=C1C)C2(C)C)[C@@H](O)C[C@H]1OC[C@@]31OC(C)=O (stereo partly drawn),1.79
